# In PubChem BioAssay AID686979 (National Center for Advancing Translational Sciences (NCATS), 2013):
# Screen size: about 420,000 compounds; about 50,000 (12%) were called active. This list was built around the results that the source calls inconclusive (neither active nor inactive); the mix of calls is not that of the screen. The call rests on the fitted dose curve; in most records, active means well fitted inhibition curve with a large enough effect; inconclusive means small, poorly fitted or top-dose-only effect; inactive means flat fitted curve, though single readings scatter. Potencies of inconclusive entries are left out as doubtful fits.
# Experiment: qHTS for Inhibitors of human tyrosyl-DNA phosphodiesterase 1 (TDP1): qHTS in cells in presence of CPT; further: nearly all actives have a fitted effect of over 55% in size
# Settings: chicken DT40 Tdp1-/-;hTDP1 cells + 20 nM CPT, ATP luminescence, 48 h; activity change, negative = growth inhibition: at 46.2 µM (top of the series)
# Outline: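 Chicken DT40 Tdp1-/- cells complemented with human TDP1, 400 cells/well, exposed to compounds plus 20 nM camptothecin for at least 48 h at 37 C; viability read as ATP content by CellTiter-Glo luminescence.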
# On the % scale 0 is the no-effect control and ±100 the full control effect; potency means the concentration at half of the fitted maximal effect; tags describe the fitted curve by direction and shape.
SMILES,Potency,"activity change, negative = growth inhibition"
COc1ccc(C2CC(c3ccc(OC)c(OC)c3)=NN2C(=O)c2ccccc2)cc1 (stereo not drawn),inactive,
CN1CCC(N(C)C(=O)c2ccc(Cl)c(S(=O)(=O)N(C)c3ccc(Cl)cc3)c2)CC1,"inconclusive [inhibitor, single point]",
Cc1ccccc1C(=O)Nc1cccc(-c2nc3cccnc3s2)c1,"inconclusive [inhibitor, single point]",
CCCCNS(=O)(=O)c1ccc2nc(SCC(=O)N3CC(C)OC(C)C3)[nH]c2c1 (stereo not drawn),inactive,
CC(C)C(C(=O)NC1=NCCS1)c1ccc(Cl)cc1 (stereo not drawn),"inconclusive [inhibitor, single point]",
Cc1ccsc1C(=O)N/N=C/c1ccc2c(c1)OCO2,"inconclusive [inhibitor, full curve, poor fit]",
Oc1cccc(Nc2nc(O)c(/C=C3\C=Nc4ccccc43)s2)c1,"inconclusive [inhibitor, partial curve]",
COc1ccc(-c2nc3oc4cc(OC)ccc4c(=O)c3c(=O)n2Cc2ccco2)cc1,"inconclusive [inhibitor, single point]",
C[C@H](O)[C@@H]1C(=O)N2CCc3ccc(N4CCOCC4)cc3[C@@H]2C[C@@H]1N(C)C(=O)C(C)(C)C,"inconclusive [inhibitor, partial curve]",
Cc1nnc(NCCN2CCOCC2)[nH]c1=O,inactive,
O=S(=O)(NCC[C@@H]1CC[C@H](NS(=O)(=O)c2cccc(F)c2)[C@@H](CO)O1)c1cccc(F)c1,inactive,
Nc1c(C(=O)N/N=C/c2ccc(OCc3ccccc3)cc2)cnn1-c1ccccc1,active: 16.4 µM,
COc1ccc(-c2nc3cnc(Oc4ccccc4)nc3n(C3CC3)c2=O)cc1,inactive,
O=C(CCS(=O)(=O)c1ccc(Br)cc1)N1CCN(c2ccccc2Cl)CC1,,inconclusive: -32% [inhibitor]
O=C(CSc1nc(=O)n(Cc2ccncc2)c2c1CCC2)Nc1ccccc1,inactive,
C=CCOc1c(Cl)cc(CNCCCN2CCOCC2)cc1OC,active: 23.1 µM,
COc1cccc(N2CCN(C(=O)CCn3nc(C)c(S(=O)(=O)N4CCCC4)c3C)CC2)c1,"inconclusive [inhibitor, single point]",
O=C1NC2c3ccccc3C(=O)N2c2c1cnn2-c1ccccc1 (stereo not drawn),"inconclusive [inhibitor, single point]",
CC1(C(=O)O)CCN1C(=O)/C=C/c1ccccc1 (stereo not drawn),inactive,
O=C(O)CC1NC(=S)N(c2ccccc2)C1=O (stereo not drawn),inactive,
Cc1cccc(C)c1NC(=O)COC(=O)c1ccc2[nH]c3c(c2c1)CCCC3,"inconclusive [inhibitor, single point]",
O=c1c2ccccc2nc2n1CCC2O (stereo not drawn),inactive,
CCOC(=O)c1c(NC(=O)Cc2cccs2)sc(C(=O)N2CCCCC2)c1C,"inconclusive [inhibitor, single point]",
Cc1ccc(OCC(=O)NNc2c3ccccc3nc3ccccc23)cc1,"inconclusive [inhibitor, single point]",
Cc1ccc(-n2ncc3c(N4CCN(c5ccc(F)cc5)CC4)ncnc32)c(C)c1,active: 11.6 µM,

SMILES,Potency,"activity change, negative = growth inhibition"
CCOC(=O)/C=C/C(=O)Nc1nccs1,active: 7.31 µM,
COc1ccc(OC)cc1,inactive,
COc1cccc(CNC(=O)CCc2c(C)c3cc4c(C)coc4cc3oc2=O)c1,active: 13 µM,
CCCN(CCC)C(=O)c1c[nH]c2ccc(S(=O)(=O)N(C)c3ccc(Cl)cc3)cc2c1=O,"inconclusive [inhibitor, single point]",
CC(C)CCC1CC(CSC(=N)N)OC1=O (stereo not drawn),"inconclusive [inhibitor, single point]",
COC(=O)[C@H](C)N(Cc1ccc(Cl)c(Cl)c1)S(=O)(=O)CCNC1CCCC1,"inconclusive [inhibitor, single point]",
O=C(Nc1ccccc1)NN(C(=O)CCl)c1ccccc1,active: 3.26 µM,
OC[C@H]1OC(O)[C@@H](O)[C@@H](O)[C@@H]1O (stereo partly drawn),inactive,
C=CCn1cc(C(=O)NCc2cccnc2)c(=O)c2cc(S(=O)(=O)N(CC)CC)ccc21,"inconclusive [inhibitor, partial curve]",
CC1Cc2nc(SCC(=O)Nc3ccc4c(c3)OCO4)n(-c3ccc(F)cc3)c(=O)c2S1 (stereo not drawn),inactive,
O=C(NC1CCCCC1)C(=S)N1CCOCC1,inactive,
COc1ccc(NC(=O)c2cccc3c(Br)cccc23)cc1,"inconclusive [inhibitor, partial curve]",
Cc1nc(C(=O)Nc2ccccc2)sc1C(=O)Nc1ccccc1,active: 18.4 µM,
CC1CCN(CCCNC(=O)c2ccc3c(=O)n(Cc4ccc(Cl)cc4)c(=S)[nH]c3c2)CC1,"inconclusive [inhibitor, single point]",
COc1ccc2cc(CCNC(=O)c3cccc([N+](=O)[O-])c3)c(=O)[nH]c2c1,active: 23.1 µM,
CCOc1ccc(C(C)NC(=O)c2ccccc2OCc2c(C)noc2C)cc1OCC (stereo not drawn),"inconclusive [inhibitor, single point]",
CC(C)(C)OC(=O)NNc1c2ccccc2nc2ccccc12,active: 16.4 µM,
COc1ccc(NC(=O)CS(=O)(=O)c2cccc(Cl)c2)cc1,"inconclusive [inhibitor, single point]",
Cc1ccc(OCc2cc(=O)n3c4c(sc3n2)CCCC4)c(C)c1,inactive,
CN(c1ncnc(N)c1[N+](=O)[O-])C1CCCCC1,"inconclusive [inhibitor, partial curve]",
S=c1nc(-c2ccccn2)c(-c2ccccn2)n[nH]1,"inconclusive [inhibitor, partial curve, poor fit]",
Cc1c(C(=O)NCc2ccc3c(c2)OCCO3)sc(=O)n1Cc1ccc(C(=O)N(C)C)cc1,"inconclusive [inhibitor, single point]",
N#Cc1c(SCc2ccccc2)nc(N2CCOCC2)c2c1CCCC2,inactive,
CN(C)S(=O)(=O)c1cccc(C(=O)Nc2cccnc2)c1,inactive,
O=C(NC1CCCC1)C(c1ccccc1)n1c(-c2cccc3ccccc23)nc2ccccc21 (stereo not drawn),"inconclusive [inhibitor, single point]",

SMILES,Potency,"activity change, negative = growth inhibition"
Cc1cc(N2CCN(C)CC2)nc2ccc(NC(=O)CCC(=O)N3CCN(c4ccc([N+](=O)[O-])cc4)CC3)cc12,active: 25.9 µM,
N/C(=N\OC(=O)Cc1cccc2ccccc12)c1ccccn1,"inconclusive [inhibitor, single point]",
COc1ccc(CC(=O)NC(C)CCc2ccccc2)cc1 (stereo not drawn),inactive,
CC(=O)Nc1ccc(NC(=O)Cn2cnc3c(nnn3Cc3ccc(F)cc3)c2=O)cc1,inactive,
COc1ccc(OC)c(-n2c(=O)[nH]c3cc(C(=O)NCCc4ccc(OC)c(OC)c4)ccc3c2=O)c1,inactive,
COc1cccc(NC(=O)c2sc(-n3nc(C)c(Cc4ccccc4Cl)c3C)nc2C)c1,inactive,
Cc1ccccc1NC(=O)c1ccc(NC(=O)N2CCSc3ncccc32)cc1,"inconclusive [inhibitor, single point]",
COc1ccc([C@H]2CC(=O)C=C(c3cccc(OCc4ccccc4)c3)C2)cc1,"inconclusive [inhibitor, partial curve, poor fit]",
CC(C)(C)c1ccc(OCc2ccc(C(=O)N/N=C3\CC4CC=CC34)cc2)cc1 (stereo not drawn),active: 13 µM,
Cc1ccnn1CC(=O)N1CCOc2c(cc(-c3csc4ccccc34)cc2OC2CCOC2)C1 (stereo not drawn),"inconclusive [inhibitor, single point]",
O=C(COc1ccc2c(c1)CCC2)N1CCN(c2cccc(C(F)(F)F)c2)CC1,"inconclusive [inhibitor, single point]",
S=C(Nc1ccc2c(c1)OCO2)Nc1ccc2c(c1)OCO2,inactive,
CC1(C(=O)N2CCC(CC3CC(c4ccc(Cl)cc4)=NO3)(C(=O)NCC3CCCCC3)CC2)CC1 (stereo not drawn),"inconclusive [inhibitor, single point]",
Cc1cc(N2CCCC2)nc(SCC(=O)c2ccccc2)n1,"inconclusive [inhibitor, single point]",
Cc1ccc(NC(=O)CCN2CCN(C/C=C/c3ccccc3)CC2)cc1,"inconclusive [inhibitor, single point]",
O=c1[nH]cccc1-c1nc2ccccc2n1Cc1ccc(Cl)cc1,"inconclusive [inhibitor, partial curve]",
CCCCOc1ccc(N(CC(=O)NC(C)(C)C)C(=O)CCC(=O)Nc2nccs2)cc1,"inconclusive [inhibitor, single point]",
C(#Cc1ccccc1)C[N+]1(CC#Cc2cccc3ccccc23)CCCC1,active: 0.651 µM,
CC1=NN(C(=O)Cc2ccccc2)C(O)(c2ccccc2)C1 (stereo not drawn),active: 2.91 µM,
O=C(CNC1=NCCC1)c1ccc2c(c1)OCCO2,"inconclusive [inhibitor, single point]",
CCn1c2ccccc2c2cc(NC(=O)C(C)OC(=O)c3ccc(NC(=O)CC#N)cc3)ccc21 (stereo not drawn),"inconclusive [inhibitor, single point]",
C/C(=N\NC(=O)c1ccc(NS(=O)(=O)c2cccs2)cc1)c1ccc(O)cc1O,"inconclusive [inhibitor, single point]",
C=C[C@]1(C)C=C2CCC3[C@](C)(CCC[C@@]3(C)C(=O)O)C2CC1 (stereo partly drawn),inactive,
